The results in this text go back to the supplement of paper PMC12067230.

This is a noisy data set.
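Also: [psi-pin-] Saccharomyces cerevisiae expressing SupN fusions, induced by 100 µM Cu2SO4, selected 7 d at 30 °C without adenine and uracil, scored by deep sequencing of output versus input.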

One data set can be described thus: amyloid nucleation score relative to library mode (yeast Sup35 reporter selection) (log enrichment difference); higher = more amyloid nucleation; sequences are the first 22 residues of the Bri2 peptide extended by up to 12 random residues. Particulars: random library (experiment): 1;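 active = nucleation score significantly above 0 at FDR 0.05; inactive = not significantly above 0 or absent from output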.
On to EASNCFAIRHFENKFAVETLICFVVVVKGYCWRE, for which the amyloid nucleation score entry was “inactive”. On the same count and under the same terms, for EASNCFAIRHFENKFAVETLICFVWGVRSTVVGK the value was 4.66; for EASNCFAIRHFENKFAVETLICFVYNDAMTELQE, 5.52. On to EASNCFAIRHFENKFAVETLICFW, for which the amyloid nucleation score stood at 7.74. The sequence EASNCFAIRHFENKFAVETLICFWCFGVRVGRDS yielded an amyloid nucleation score of 6.21.

EASNCFAIRHFENKFAVETLICFWCRHYVVFE: the amyloid nucleation score entry was “inactive”. Same read-out and setting: for EASNCFAIRHFENKFAVETLICFWFCGIEGEKWG the value was -0.0572; for EASNCFAIRHFENKFAVETLICFWMCNFIGNGFP, 1.14. Regarding EASNCFAIRHFENKFAVETLICFWMIGLASWNAE, the amyloid nucleation score entry is “inactive”. As for EASNCFAIRHFENKFAVETLICFWPFNVCDKYPD, the amyloid nucleation score was 6.92. On the same count and under the same terms, for EASNCFAIRHFENKFAVETLICFWRSGRTKYVLE the value was “inactive”.

Regarding EASNCFAIRHFENKFAVETLICFWTTNVNAMDAW, the amyloid nucleation score worked out at 0.294. Same read-out and setting: the result for EASNCFAIRHFENKFAVETLICFYFCGAMQDRDH reads 6.8; that for EASNCFAIRHFENKFAVETLICFYG, 6.64; that for EASNCFAIRHFENKFAVETLICFYGMSSLRDAPI, “inactive”. Still for that read-out and setting: the result for EASNCFAIRHFENKFAVETLICFYKATLQAVESP reads “inactive”. Still for that read-out and setting: the result for EASNCFAIRHFENKFAVETLICFYMATLAATVR reads “inactive”; that for EASNCFAIRHFENKFAVETLICFYMSS, 5.64. On to EASNCFAIRHFENKFAVETLICFYMVSDVGMRQR, for which the amyloid nucleation score result was “inactive”.

On to EASNCFAIRHFENKFAVETLICFYPFQ, for which the amyloid nucleation score was found to be 6.46. For the sequence EASNCFAIRHFENKFAVETLICFYRTDPRAVGHT, the amyloid nucleation score entry was “inactive”.

EASNCFAIRHFENKFAVETLICFYSMAKRHVKRL: the amyloid nucleation score entry was “inactive”. The same measure, in the same setting: for EASNCFAIRHFENKFAVETLICFYSSSPLGRGIC the value was “inactive”; for EASNCFAIRHFENKFAVETLICFYTYGQLIKHMA, “inactive”. Take EASNCFAIRHFENKFAVETLICFYVSINM: the amyloid nucleation score amounted to 1.33. In the case of EASNCFAIRHFENKFAVETLICGA, the amyloid nucleation score result is “inactive”.

On to EASNCFAIRHFENKFAVETLICGAAPTPRHSSGE, for which the amyloid nucleation score entry was “inactive”. In the case of EASNCFAIRHFENKFAVETLICGAAVTGARTCGV, the amyloid nucleation score result was “inactive”. For EASNCFAIRHFENKFAVETLICGAGCCRPERSAG, the amyloid nucleation score entry is “inactive”. For EASNCFAIRHFENKFAVETLICGAGNN, the amyloid nucleation score entry was “inactive”.

Consider EASNCFAIRHFENKFAVETLICGAKVRWHDRTVG, for which the amyloid nucleation score was 0.0198. On the same count and under the same terms, the result for EASNCFAIRHFENKFAVETLICGALRAEFAFPRG reads “inactive”; that for EASNCFAIRHFENKFAVETLICGAMLNCEINETR, 8.02. EASNCFAIRHFENKFAVETLICGANMTVRRVDGL yielded an amyloid nucleation score of 2.36.

Consider EASNCFAIRHFENKFAVETLICGANRPLW, for which the amyloid nucleation score entry is “inactive”. The same measure, in the same setting: for EASNCFAIRHFENKFAVETLICGAPP the value was “inactive”. Turning to EASNCFAIRHFENKFAVETLICGAQGALLDGRQG, the amyloid nucleation score result was “inactive”. Still for that read-out and setting: for EASNCFAIRHFENKFAVETLICGAQRCLISIGLE the value was “inactive”; for EASNCFAIRHFENKFAVETLICGAQWSSTSLCEM, “inactive”.

The data set is the same for the next values; noted with them: random library (experiment): 2.
Consider EASNCFAIRHFENKFAVETLICFVWAYDF, for which the amyloid nucleation score was 3.96. On to EASNCFAIRHFENKFAVETLICFVYDLMSGDSLV, for which the amyloid nucleation score result was “inactive”. As for EASNCFAIRHFENKFAVETLICFVYLFLRFRLVS, the amyloid nucleation score result is “inactive”. On the same count and under the same terms, the result for EASNCFAIRHFENKFAVETLICFVYLSPFRLGSY reads “inactive”. On the same count and under the same terms, for EASNCFAIRHFENKFAVETLICFWFKQ the value was 3.75.

EASNCFAIRHFENKFAVETLICFWFVFN returned an amyloid nucleation score of 1.95. Still for that read-out and setting: the result for EASNCFAIRHFENKFAVETLICFWNLYEIEGCCC reads “inactive”; that for EASNCFAIRHFENKFAVETLICFWQ, 6.21.

In turn, EASNCFAIRHFENKFAVETLICFWSAILLTLICE showed an amyloid nucleation score of -0.0862. Still for that read-out and setting: for EASNCFAIRHFENKFAVETLICFY the value was 0.248; for EASNCFAIRHFENKFAVETLICFYCLFLWISRTW, “inactive”. Take EASNCFAIRHFENKFAVETLICFYFLGECLYYVY: the amyloid nucleation score entry is “inactive”.

In the case of EASNCFAIRHFENKFAVETLICFYIVPSYFWYSC, the amyloid nucleation score result was “inactive”. EASNCFAIRHFENKFAVETLICFYIYARVWESDH gave an amyloid nucleation score of 1.63.

Sequence EASNCFAIRHFENKFAVETLICFYKNMFSEWF registered an amyloid nucleation score of 0.391. The sequence EASNCFAIRHFENKFAVETLICFYLKSTFPDPGP came in with an amyloid nucleation score of 3.29. Still for that read-out and setting: the result for EASNCFAIRHFENKFAVETLICFYLML reads “inactive”. Sequence EASNCFAIRHFENKFAVETLICFYLYSDQ displayed an amyloid nucleation score of 6.17. Take EASNCFAIRHFENKFAVETLICFYMFS: the amyloid nucleation score is 5.76. On the same count and under the same terms, for EASNCFAIRHFENKFAVETLICFYN the value was 5.18; for EASNCFAIRHFENKFAVETLICFYNSLFSCGDCW, 6.85. On the same count and under the same terms, for EASNCFAIRHFENKFAVETLICFYRPQGTLVDLG the value was “inactive”. Still for that read-out and setting: the result for EASNCFAIRHFENKFAVETLICFYSRSRNGFWFL reads “inactive”.

For EASNCFAIRHFENKFAVETLICFYVLNVVNTRCC, the amyloid nucleation score result is “inactive”. Same read-out and setting: for EASNCFAIRHFENKFAVETLICFYWNSIRRGGQY the value was 4.43; for EASNCFAIRHFENKFAVETLICFYYGMESILMAS, “inactive”. As to EASNCFAIRHFENKFAVETLICFYYTAFVKGRE, the amyloid nucleation score entry is “inactive”. For EASNCFAIRHFENKFAVETLICGAFTYLRVISRT, the amyloid nucleation score result is “inactive”. For the sequence EASNCFAIRHFENKFAVETLICGAILRVSDSVLC, the amyloid nucleation score was found to be 1.93. Regarding EASNCFAIRHFENKFAVETLICGAKKRKTARA, the amyloid nucleation score result was “inactive”.

EASNCFAIRHFENKFAVETLICGALLCV yielded an amyloid nucleation score of 6.84. The same measure, in the same setting: for EASNCFAIRHFENKFAVETLICGAMNATSRSGSI the value was “inactive”; for EASNCFAIRHFENKFAVETLICGAR, “inactive”.

The data set is the same for the next values; noted with them: random library (experiment): 3.
Consider EASNCFAIRHFENKFAVETLICFVYFFMCLNHSH, for which the amyloid nucleation score entry was “inactive”.

With EASNCFAIRHFENKFAVETLICFVYLGC, the amyloid nucleation score is 3.57. Take EASNCFAIRHFENKFAVETLICFVYPHMTSTCPR: the amyloid nucleation score came out at 6.02. On the same count and under the same terms, for EASNCFAIRHFENKFAVETLICFWCCARNPTVTF the value was 9.34; for EASNCFAIRHFENKFAVETLICFWCHRMHWREWV, “inactive”. Regarding EASNCFAIRHFENKFAVETLICFWKYLRVLGYGN, the amyloid nucleation score entry was “inactive”. Turning to EASNCFAIRHFENKFAVETLICFWLFLAFEDLW, the amyloid nucleation score result was “inactive”. Still for that read-out and setting: the result for EASNCFAIRHFENKFAVETLICFWSCIIWGECCC reads “inactive”; that for EASNCFAIRHFENKFAVETLICFWSLETDSCCF, “inactive”.

As for EASNCFAIRHFENKFAVETLICFWYAQSLFWRWH, the amyloid nucleation score entry is “inactive”. On the same count and under the same terms, for EASNCFAIRHFENKFAVETLICFWYIY the value was 0.582; for EASNCFAIRHFENKFAVETLICFYGLSVKRAEHQ, -0.111; for EASNCFAIRHFENKFAVETLICFYLFPICYSLYR, “inactive”.

As to EASNCFAIRHFENKFAVETLICFYLS, the amyloid nucleation score was 4.87.

As for EASNCFAIRHFENKFAVETLICFYRHCMKDHLMP, the amyloid nucleation score entry was “inactive”. On the same count and under the same terms, for EASNCFAIRHFENKFAVETLICFYSFCLGVKEQG the value was “inactive”; for EASNCFAIRHFENKFAVETLICFYTH, 5.61; for EASNCFAIRHFENKFAVETLICFYVMPKGGGEHV, 5.58. Still for that read-out and setting: the result for EASNCFAIRHFENKFAVETLICFYVTFCIVSRMS reads “inactive”; that for EASNCFAIRHFENKFAVETLICGACGTNTALFRM, “inactive”. Consider EASNCFAIRHFENKFAVETLICGACWSTLWKLYL, for which the amyloid nucleation score entry is “inactive”. Still for that read-out and setting: the result for EASNCFAIRHFENKFAVETLICGAECLVYRPVGK reads “inactive”; that for EASNCFAIRHFENKFAVETLICGAEGSMTARLAR, “inactive”.

Take EASNCFAIRHFENKFAVETLICGAFCQG: the amyloid nucleation score was found to be 4.41. Same read-out and setting: the result for EASNCFAIRHFENKFAVETLICGAGKLNARVRAR reads “inactive”; that for EASNCFAIRHFENKFAVETLICGAIS, “inactive”; that for EASNCFAIRHFENKFAVETLICGALGVGWGRMRG, 7.03. On the same count and under the same terms, for EASNCFAIRHFENKFAVETLICGALN the value was “inactive”.

Consider EASNCFAIRHFENKFAVETLICGALP, for which the amyloid nucleation score result is “inactive”. Take EASNCFAIRHFENKFAVETLICGAMEKVLGAELG: the amyloid nucleation score entry is “inactive”. Turning to EASNCFAIRHFENKFAVETLICGANGWMRRVVVL, the amyloid nucleation score result was “inactive”. EASNCFAIRHFENKFAVETLICGAPGCRPRLDCV: the amyloid nucleation score result is “inactive”.
